Assay results taken from PubChem BioAssay AID588855 (National Center for Advancing Translational Sciences (NCATS), 2011).
Hit rate of the full screen: of about 410,000 compounds, about 5,000 (1.2%) were called active. Inconclusive results, whose numbers are uncertain, are shown with a selection of clear calls. The call rests on the fitted dose curve; in most records, active means well fitted inhibition curve with a large enough effect; inconclusive means small, poorly fitted or top-dose-only effect; inactive means no such curve, though single readings can be large or run the other way. Where the call is inconclusive, the potency comes from a doubtful curve fit.

Experiment: qHTS for Inhibitors of TGF-b; further: nearly all actives have a fitted effect of over 65% in size
Conditions: HepG2 CAGA-GFP TGF-b/SMAD3 reporter, GFP fluorescence, 18 h, TGF-beta stimulated, 500 pg/mL final; series mostly up to 46.1 µM
Summary of the method: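 Inhibition of TGF-beta-driven CAGA-GFP reporter expression in HEPG2 cells is measured by cellular GFP fluorescence after 18 h stimulation with 500 pg/mL recombinant TGF-beta in 1% FBS medium at 37 degrees C.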
Potency means the concentration at half of the fitted maximal effect; tags describe the fitted curve by direction and shape.

| SMILES | Potency |
| --- | --- |
| NCC/C=C1/c2ccccc2CSc2ccccc21 | inconclusive: 35.5 µM [inhibitor, single point] |
| COc1cc(C(=O)OCC(=O)NCC2CCCCC2)ccc1OCC(C)C | inconclusive: 35.5 µM [inhibitor, single point] |
| O=C(NCc1ccccc1)C(c1ccccc1F)N(C(=O)c1csnn1)C1CCCC1 (centres undefined) | inactive |
| CCN(CC)C(=O)N1CCN(/[N+]([O-])=N/Oc2ccc([N+](=O)[O-])cc2[N+](=O)[O-])CC1 | inconclusive: 35.5 µM [inhibitor, single point] |
| CCN(CC)c1ccc(-c2nc(-c3ccccc3C)no2)cc1[N+](=O)[O-] | inactive |
| CCCc1cc(=O)oc2c3c(cc(OCC(=O)NCc4ccncc4)c12)OC(C)(C)CC3 | inactive |
| Cc1ccc(C)c(Cn2c(C3CC(=O)N(c4ccccc4C)C3)nc3ccccc32)c1 (centres undefined) | inconclusive: 11.2 µM [inhibitor, partial curve, poor fit] |
| CC(=O)N1CCc2c(sc3nc(SCC(C)C)n(-c4ccc(F)c(Cl)c4)c(=O)c23)C1 | inconclusive: 12.6 µM [inhibitor, partial curve, poor fit] |
| Cc1ccc(/C=N/NC(=O)Cc2ccc(Cl)cc2)c(O)c1 | inconclusive: 6.31 µM [inhibitor, partial curve, poor fit] |
| Fc1cc(F)c(F)c(SCCc2ccncc2)c1F | inconclusive: 22.4 µM [inhibitor, partial curve, poor fit] |
| Cc1ccc(NC(=O)CSc2ncn[nH]2)cc1 | inconclusive: 0.112 µM [inhibitor, full curve] |
| O=c1c2ccc(F)cc2sn1-c1ccccc1 | active: 11.2 µM |
| CCC1(CC)C(=O)C(C)(C)C(=O)OC1c1cccs1 (centres undefined) | inconclusive: 35.5 µM [inhibitor, single point] |
| Cc1cc(SCC(=O)Nc2ccccc2)n2ncc(-c3ccccc3)c2n1 | inconclusive: 17.8 µM [inhibitor, partial curve, poor fit] |
| COc1cc(OCC(N)=O)cc(OC)c1OC | inconclusive: 20 µM [inhibitor, single point] |
| COc1cc2c(=O)n(CC3CCCO3)c(=O)n(CC(=O)Nc3cccc(Cl)c3)c2cc1OC (centres undefined) | inconclusive: 35.5 µM [inhibitor, single point] |
| O=C(NCc1ccccn1)/C(=N/O)c1ccccc1 | inconclusive: 35.5 µM [inhibitor, single point] |
| CCN(CC)c1ccc(NC(=O)CSc2nc(-c3cccs3)cc(C(F)(F)F)n2)cc1 | inactive |
| COCCNC(=O)C1(C)CCCN(C(=O)c2ccc(C)c(F)c2)C1 (centres undefined) | inactive |
